{"source": "a collection of fitness landscapes (doi:10.1038/s41467-024-54723-y)", "note": "In all, about 18,000 sequences were measured (“TetR repression strength (sort-seq, GFP reporter)”: median about 0.23, highest 2% from about 0.68 on). Some of the results follow.", "data": [{"target": "TetR (class B, Tn10) (UniProt P04483)", "sequence (P04483 whole entry)": "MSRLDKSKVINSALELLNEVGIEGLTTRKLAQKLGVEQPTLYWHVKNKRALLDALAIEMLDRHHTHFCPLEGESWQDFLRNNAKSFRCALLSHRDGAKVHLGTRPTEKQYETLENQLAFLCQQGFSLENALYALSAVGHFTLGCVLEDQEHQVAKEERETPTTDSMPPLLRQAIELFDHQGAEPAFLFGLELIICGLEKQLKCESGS", "assay": "TetR repression strength (sort-seq, GFP reporter) (relative to tetO2 = 1); higher = stronger repression", "settings": "E. coli", "summary_of_the_method": "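Repression strength was calculated by subtracting the read-weighted mean bin from the top bin index plus one and dividing by the unaltered operator's value. The plasmid library was low-copy in E. coli SIG10-MAX, with eight randomized operator positions between a constitutive promoter and sfGFP and constitutive TetR. Cultures grew 5 h at 37 °C in LB containing 50 µg/mL chloramphenicol before 10^6 cells were sorted by FACS into 13 fluorescence bins, each sequenced on Illumina. Three independent transformations were averaged for members having ≥30 reads in all replicates and a CV ≤0.5.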", "values": [{"sequence": "TCCCGTAGAGTGGTGGAGA", "TetR repression strength": 0.152}, {"sequence": "TCCCATGAAGTCAGAGAGA", "TetR repression strength": 0.231}, {"sequence": "TCCCTTCTAGTGCTGGAGA", "TetR repression strength": 0.623}, {"sequence": "TCCCTCCGAGTGGTTGAGA", "TetR repression strength": 0.0968}, {"sequence": "TCCCGGATAGTGGGAGAGA", "TetR repression strength": 0.318}, {"sequence": "TCCCCAGCAGTGATAGAGA", "TetR repression strength": 0.186}, {"sequence": "TCCCTCATAGTGTATGAGA", "TetR repression strength": 0.289}, {"sequence": "TCCCGATAAGTTGGTGAGA", "TetR repression strength": 0.376}, {"sequence": "TCCCCACAAGTCGTCGAGA", "TetR repression strength": 0.226}, {"sequence": "TCCCAGCTAGTGGTAGAGA", "TetR repression strength": 0.306}, {"sequence": "TCCCCAGGAGTGGTGGAGA", "TetR repression strength": 0.223}, {"sequence": "TCCCAAGCAGTGGAGGAGA", "TetR repression strength": 0.121}, {"sequence": "TCCCGTGGAGTGGCCGAGA", "TetR repression strength": 0.159}, {"sequence": "TCCCGATGAGTGATTGAGA", "TetR repression strength": 0.423}, {"sequence": "TCCCGCAGAGTAGTTGAGA", "TetR repression strength": 0}, {"sequence": "TCCCAGGTAGTCAGAGAGA", "TetR repression strength": 0.18}, {"sequence": "TCCCACAAAGTTTAAGAGA", "TetR repression strength": 0.298}, {"sequence": "TCCCGAGCAGTGATAGAGA", "TetR repression strength": 0.75}, {"sequence": "TCCCAGACAGTATTTGAGA", "TetR repression strength": 0.274}, {"sequence": "TCCCCTACAGTGCAAGAGA", "TetR repression strength": 0.367}, {"sequence": "TCCCTGCCAGTCCGTGAGA", "TetR repression strength": 0.378}, {"sequence": "TCCCCGGGAGTGCAGGAGA", "TetR repression strength": 0.076}, {"sequence": "TCCCTCACAGTCCATGAGA", "TetR repression strength": 0.0897}, {"sequence": "TCCCACTCAGTACACGAGA", "TetR repression strength": 0.212}, {"sequence": "TCCCGTTGAGTGAAGGAGA", "TetR repression strength": 0.266}, {"sequence": "TCCCCTATAGTCTTAGAGA", "TetR repression strength": 0.285}, {"sequence": "TCCCTCACAGTGGCTGAGA", "TetR repression strength": 0.253}, {"sequence": "TCCCATGTAGTATATGAGA", "TetR repression strength": 0.156}, {"sequence": "TCCCAGGGAGTGCACGAGA", "TetR repression strength": 0.128}, {"sequence": "TCCCGCGAAGTAAGTGAGA", "TetR repression strength": 0.29}, {"sequence": "TCCCATAAAGTCCTTGAGA", "TetR repression strength": 0.279}, {"sequence": "TCCCCTAAAGTCTGGGAGA", "TetR repression strength": 0.162}, {"sequence": "TCCCCGAAAGTCGCGGAGA", "TetR repression strength": 0.128}, {"sequence": "TCCCCGTGAGTGGCCGAGA", "TetR repression strength": 0.153}, {"sequence": "TCCCTTGTAGTGAGTGAGA", "TetR repression strength": 0.148}, {"sequence": "TCCCCTGGAGTGGCGGAGA", "TetR repression strength": 0.13}, {"sequence": "TCCCTGGAAGTATGGGAGA", "TetR repression strength": 0.279}, {"sequence": "TCCCGGAAAGTGAATGAGA", "TetR repression strength": 0.518}, {"sequence": "TCCCACGTAGTGACCGAGA", "TetR repression strength": 0.235}, {"sequence": "TCCCGGCAAGTCGGAGAGA", "TetR repression strength": 0.512}, {"sequence": "TCCCGAGAAGTTATTGAGA", "TetR repression strength": 0.0542}, {"sequence": "TCCCGAGAAGTAACCGAGA", "TetR repression strength": 0.189}, {"sequence": "TCCCCAAGAGTCGACGAGA", "TetR repression strength": 0.264}, {"sequence": "TCCCACTGAGTCACCGAGA", "TetR repression strength": 0.428}, {"sequence": "TCCCGTGTAGTGTATGAGA", "TetR repression strength": 0.281}, {"sequence": "TCCCTGGTAGTGCAAGAGA", "TetR repression strength": 0.597}, {"sequence": "TCCCTCTAAGTGGGTGAGA", "TetR repression strength": 0.123}, {"sequence": "TCCCGCCAAGTCGAAGAGA", "TetR repression strength": 0.26}, {"sequence": "TCCCGAGTAGTCTGGGAGA", "TetR repression strength": 0.357}, {"sequence": "TCCCTAGGAGTCTGCGAGA", "TetR repression strength": 0.265}, {"sequence": "TCCCTAGTAGTGCACGAGA", "TetR repression strength": 0.0915}, {"sequence": "TCCCAACAAGTGCTGGAGA", "TetR repression strength": 0.331}, {"sequence": "TCCCACCGAGTAATTGAGA", "TetR repression strength": 0.284}, {"sequence": "TCCCCGACAGTTCGTGAGA", "TetR repression strength": 0.16}, {"sequence": "TCCCCGGGAGTGGGGGAGA", "TetR repression strength": 0.258}, {"sequence": "TCCCAGTGAGTGCGAGAGA", "TetR repression strength": 0.527}, {"sequence": "TCCCGGTAAGTAGGAGAGA", "TetR repression strength": 0.229}, {"sequence": "TCCCTGTAAGTGCGTGAGA", "TetR repression strength": 0.162}, {"sequence": "TCCCTTTAAGTCGACGAGA", "TetR repression strength": 0.285}, {"sequence": "TCCCAGCCAGTGGGGGAGA", "TetR repression strength": 0.226}, {"sequence": "TCCCGAGAAGTGTAAGAGA", "TetR repression strength": 0.301}, {"sequence": "TCCCTGTGAGTCACTGAGA", "TetR repression strength": 0.219}, {"sequence": "TCCCAATCAGTCCAGGAGA", "TetR repression strength": 0.514}, {"sequence": "TCCCTGTTAGTGATAGAGA", "TetR repression strength": 0.428}, {"sequence": "TCCCGAGTAGTGTCGGAGA", "TetR repression strength": 0.0933}, {"sequence": "TCCCGACCAGTGGCAGAGA", "TetR repression strength": 0.261}, {"sequence": "TCCCAGCAAGTGGCTGAGA", "TetR repression strength": 0.197}, {"sequence": "TCCCCATGAGTGGTTGAGA", "TetR repression strength": 0.174}, {"sequence": "TCCCCTAAAGTGTCCGAGA", "TetR repression strength": 0.358}, {"sequence": "TCCCTCAAAGTAGTCGAGA", "TetR repression strength": 0.288}, {"sequence": "TCCCGAGTAGTCTATGAGA", "TetR repression strength": 0.259}, {"sequence": "TCCCGATAAGTAGTCGAGA", "TetR repression strength": 0.335}, {"sequence": "TCCCAGTTAGTTCTCGAGA", "TetR repression strength": 0.446}, {"sequence": "TCCCTGCCAGTGAATGAGA", "TetR repression strength": 0.344}, {"sequence": "TCCCGAGGAGTTCCAGAGA", "TetR repression strength": 0.316}, {"sequence": "TCCCGACTAGTAGTGGAGA", "TetR repression strength": 0.2}, {"sequence": "TCCCTTCTAGTGACAGAGA", "TetR repression strength": 0.406}, {"sequence": "TCCCTATGAGTCGCAGAGA", "TetR repression strength": 0.226}, {"sequence": "TCCCAGGCAGTGATAGAGA", "TetR repression strength": 0.589}, {"sequence": "TCCCTAGTAGTTAGGGAGA", "TetR repression strength": 0.192}, {"sequence": "TCCCAACTAGTGGCCGAGA", "TetR repression strength": 0.397}, {"sequence": "TCCCGACTAGTTACAGAGA", "TetR repression strength": 0.305}, {"sequence": "TCCCCGATAGTGCGAGAGA", "TetR repression strength": 0.125}, {"sequence": "TCCCTACGAGTATATGAGA", "TetR repression strength": 0.269}, {"sequence": "TCCCATATAGTTGCAGAGA", "TetR repression strength": 0.315}, {"sequence": "TCCCTGTTAGTTGTTGAGA", "TetR repression strength": 0.382}, {"sequence": "TCCCAGGTAGTGCTCGAGA", "TetR repression strength": 0.168}, {"sequence": "TCCCCCAAAGTCGGCGAGA", "TetR repression strength": 0.26}, {"sequence": "TCCCTTGGAGTGAACGAGA", "TetR repression strength": 0.201}, {"sequence": "TCCCGCACAGTGTGGGAGA", "TetR repression strength": 0.317}, {"sequence": "TCCCCGGAAGTGAGCGAGA", "TetR repression strength": 0.143}, {"sequence": "TCCCGGCGAGTTTTAGAGA", "TetR repression strength": 0.406}, {"sequence": "TCCCCATGAGTAGGGGAGA", "TetR repression strength": 0.231}, {"sequence": "TCCCCTGAAGTCGGCGAGA", "TetR repression strength": 0.034}, {"sequence": "TCCCCAGGAGTGGAGGAGA", "TetR repression strength": 0.185}, {"sequence": "TCCCGCCAAGTCGGAGAGA", "TetR repression strength": 0.257}, {"sequence": "TCCCATGTAGTCTACGAGA", "TetR repression strength": 0.3}, {"sequence": "TCCCTAGGAGTATAGGAGA", "TetR repression strength": 0.229}, {"sequence": "TCCCAAAGAGTATCGGAGA", "TetR repression strength": 0.0178}, {"sequence": "TCCCGTCCAGTGGCAGAGA", "TetR repression strength": 0.327}, {"sequence": "TCCCATCGAGTCATAGAGA", "TetR repression strength": 0.342}, {"sequence": "TCCCCCTTAGTAGAGGAGA", "TetR repression strength": 0.187}]}]}
